One molecule from patent US20180282412A1 (ASIA BIOTECH PTE, published 2018) can be followed below.

This assay concerns the target T1, full-length human PD-1 expressed on transfected CHO-K1 cells (CHO/PD-1) (human, UniProt Q15116 25-288).
T1 construct: also called PD-1-transfected CHO cells; cell surface PD-1
Description: flow cytometry, biotin-PD-L1-Fc on CHO/PD-1 cells, detected with Avidin-FITC. A general note: In flow cytometry, cells or beads pass a laser one at a time.

T1 sequence (Q15116 25-288 limits assumed): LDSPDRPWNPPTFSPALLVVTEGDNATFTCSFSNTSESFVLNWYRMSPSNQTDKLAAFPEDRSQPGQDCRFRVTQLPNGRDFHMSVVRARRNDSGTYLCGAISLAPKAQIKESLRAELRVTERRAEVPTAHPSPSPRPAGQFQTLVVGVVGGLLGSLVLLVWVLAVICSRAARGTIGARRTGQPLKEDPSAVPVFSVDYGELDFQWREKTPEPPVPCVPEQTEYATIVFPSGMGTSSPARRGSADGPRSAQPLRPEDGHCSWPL

B1: PD-L1-Fc fusion protein (extracellular region of human PD-L1 fused to human Fc) (Fc fusion)
chain: not shown
notes: also called biotin-PD-L1-Fc; biotin labelled PDL1-Fc
On to B1, for which the binding result is listed as “binds”.
